# Reference: the antibiotic and cytotoxicity screens of Wong et al. (2023)
# This is one part of the list.
# Assays:
# HSkMC = human skeletal muscle cells; test: cytotoxicity call (relative viability < 0.9); settings: 10 µM
# HepG2 = test: cytotoxicity call (relative viability < 0.9); settings: 10 µM
# S. aureus RN4220 = test: growth inhibition call (relative growth <= 0.2); settings: 50 µM
SMILES,cytotoxicity call (HSkMC),cytotoxicity call (HepG2),growth inhibition call (S. aureus RN4220)
Cc1ccc(S(=O)(=O)N(C)C[C@@H]2OCCCC[C@@H](C)Oc3ccc(NC(=O)Nc4ccc(C(F)(F)F)cc4)cc3C(=O)N([C@H](C)CO)C[C@@H]2C)cc1,inactive,inactive,inactive
C[C@H](CO)N1C[C@H](C)[C@@H](CN(C)CC2CC2)OCCCC[C@H](C)Oc2ccc(NC(=O)Nc3ccc(F)cc3)cc2C1=O,inactive,inactive,inactive
COc1ccc2c(c1)c(CC(=O)O)c(C)n2C(=O)c1ccc(Cl)cc1,inactive,inactive,inactive
C[C@@H]1CN([C@@H](C)CO)S(=O)(=O)c2ccc(Br)cc2O[C@H]1CN(C)C(=O)c1ccccc1,inactive,inactive,inactive
COc1ccc(CN(C)C[C@@H]2OCCCC[C@@H](C)Oc3ccc(NS(=O)(=O)c4ccc(F)cc4)cc3C(=O)N([C@H](C)CO)C[C@H]2C)cc1,inactive,inactive,inactive
C[C@H](CO)N1C[C@H](C)[C@H](CN(C)Cc2ccccc2)Oc2ccc(NC(=O)CCN3CCOCC3)cc2CC1=O,inactive,inactive,inactive
COc1ccc(NC(=O)N(C)C[C@@H]2Oc3ccc(NC(=O)Nc4ccc(C(F)(F)F)cc4)cc3C(=O)N([C@@H](C)CO)C[C@@H]2C)cc1,inactive,inactive,inactive
NC(=O)[C@@H]1CCOC1,inactive,inactive,inactive
O=S(=O)(NCCCCN(C/C=C/c1ccc(F)cc1)C/C=C/c1ccc(F)cc1)c1cccc2cnccc12,inactive,active,inactive
C[C@@H]1CN([C@@H](C)CO)C(=O)CCCn2cc(nn2)CO[C@@H]1CN(C)C(=O)Nc1cccc(Oc2ccccn2)c1,inactive,inactive,inactive
C[C@@H]1CN([C@@H](C)CO)C(=O)c2cccc(NC(=O)c3ccncc3)c2O[C@@H]1CN(C)S(=O)(=O)c1ccccc1,inactive,active,inactive
CCNC(=O)[C@H]1[C@H](CO)[C@H]2Cn3c(ccc(-c4ccc(OC)cc4)c3=O)[C@@H]1N2S(C)(=O)=O,inactive,inactive,inactive
C[C@@H]1CN([C@@H](C)CO)C(=O)c2cc(NC(=O)CCN3CCOCC3)ccc2O[C@H]1CN(C)S(C)(=O)=O,inactive,inactive,inactive
O=C(C[C@@H]1C[C@H]2c3cc(NS(=O)(=O)c4ccc(F)cc4)ccc3O[C@H]2[C@H](CO)O1)NCc1cccnc1,inactive,inactive,inactive
C[C@H](CO)N1C[C@H](C)[C@H](CN(C)Cc2ccncc2)OCCCC[C@H](C)Oc2ccc(NS(=O)(=O)c3ccc(Cl)cc3)cc2C1=O,inactive,inactive,inactive
CN1C(=O)c2cc(NC(=O)c3ccc(F)cc3)ccc2OC[C@@H]2O[C@@H](CC(=O)N3CCOCC3)CC[C@H]21,inactive,active,inactive
CC(C)N1CC=C[C@@]23O[C@@H]4C=CCCOC(=O)[C@@H]4[C@H]2C(=O)N([C@@H](C)CO)[C@@H]3C1=O,inactive,inactive,inactive
Cc1cc(=O)oc2cc(O)c(O)cc12,inactive,inactive,inactive
C[C@@H]1CN([C@@H](C)CO)C(=O)c2cc(NS(=O)(=O)c3ccc(Cl)cc3)ccc2O[C@@H]1CN(C)C(=O)Nc1cccc2ccccc12,inactive,inactive,inactive
C[C@H]1CN([C@@H](C)CO)C(=O)Cc2cc(NC(=O)CCN3CCOCC3)ccc2O[C@@H]1CN(C)CC1CC1,inactive,inactive,inactive
COc1ccc(S(=O)(=O)N(C)C[C@H]2Oc3ccc(NC(=O)Nc4c(C)noc4C)cc3C(=O)N([C@H](C)CO)C[C@@H]2C)cc1,inactive,inactive,inactive
C[C@@H]1CN([C@H](C)CO)C(=O)c2cc(NC(=O)Nc3ccc(C(F)(F)F)cc3)ccc2O[C@@H]1CN(C)Cc1ccc(Oc2ccccc2)cc1,active,active,inactive
C[C@@H]1CN([C@H](C)CO)C(=O)c2cc(NC(=O)Cn3cnnn3)ccc2O[C@@H]1CN(C)CC1CCCCC1,inactive,inactive,inactive
C[C@@H]1CCCCO[C@H](CN(C)C(=O)Nc2ccc(F)cc2)[C@H](C)CN([C@@H](C)CO)C(=O)c2cc(NC(=O)Nc3ccc(F)cc3)ccc2O1,inactive,inactive,inactive
CCSC(=S)N[C@H]1CCS(=O)(=O)C1,inactive,inactive,inactive
C[C@@H]1CN([C@H](C)CO)C(=O)c2cc(NC(=O)Cc3ccccc3)ccc2O[C@@H](C)CCCCO[C@@H]1CN(C)C(=O)NC1CCCCC1,inactive,inactive,inactive
C[C@H]1CN([C@@H](C)CO)C(=O)c2cc(-c3ccc(C(=O)N(C)C)cc3)cnc2O[C@@H]1CN(C)C(=O)c1ccncc1,inactive,inactive,inactive
C[C@@H]1CCCCO[C@H](CN(C)C(=O)c2ccccc2)[C@H](C)CN([C@@H](C)CO)C(=O)c2cc(NC(=O)C3CCCCC3)ccc2O1,inactive,inactive,inactive

SMILES,cytotoxicity call (HSkMC),cytotoxicity call (HepG2),growth inhibition call (S. aureus RN4220)
Cc1noc(C)c1NC(=O)Nc1ccc2c(c1)CC(=O)N([C@@H](C)CO)C[C@H](C)[C@@H](CN(C)C(=O)Nc1ccc(C(F)(F)F)cc1)O2,inactive,inactive,inactive
COC(=O)c1sccc1NC(=O)Cn1cnc2c1c(=O)n(C)c(=O)n2C,inactive,inactive,inactive
Cc1ccc(C#N)c(SCC(N)=O)n1,inactive,inactive,inactive
O=C(C[C@@H]1CC[C@@H](NC(=O)Cc2ccccn2)[C@H](CO)O1)NCCCN1CCOCC1,inactive,inactive,inactive
C[C@H]1CN([C@@H](C)CO)C(=O)Cc2cc(NS(=O)(=O)c3ccccc3)ccc2O[C@H]1CN(C)CC1CC1,inactive,inactive,inactive
C[C@@H]1CN([C@H](C)CO)C(=O)c2cccc(NC(=O)CCCCCC(=O)Nc3ccccc3N)c2O[C@H]1CN(C)Cc1ccc(C(F)(F)F)cc1,inactive,inactive,inactive
C[C@@H]1CN([C@@H](C)CO)C(=O)c2cc(NS(=O)(=O)c3ccccc3)ccc2O[C@@H]1CN(C)Cc1ccc(-c2ccccc2)cc1,active,active,inactive
C[C@H]1CN([C@@H](C)CO)C(=O)c2cc(NC(=O)Nc3ccc(C(F)(F)F)cc3)ccc2O[C@@H]1CN(C)Cc1ccc(Oc2ccccc2)cc1,inactive,inactive,inactive
C[C@@H]1CN([C@@H](C)CO)C(=O)c2cc(NC(=O)Cc3cn(C)c4ccccc34)ccc2O[C@H]1CN(C)Cc1ccc(Cl)c(Cl)c1,inactive,active,inactive
CCC(=O)N1Cc2cc(C(=O)Nc3nccs3)nc(-c3cccc(-c4ccccc4OC)c3)c2[C@H]1CCO,active,inactive,inactive
COc1ccc(NC(=O)Nc2ccc3c(c2)C(=O)N([C@@H](C)CO)C[C@@H](C)[C@@H](CN(C)C(=O)Nc2cccc4ccccc24)O3)cc1,active,inactive,inactive
C[C@@H]1CCCCO[C@H](CN(C)S(=O)(=O)c2ccc(F)cc2)[C@@H](C)CN([C@H](C)CO)C(=O)c2cc(NC(=O)C3CCCCC3)ccc2O1,inactive,inactive,inactive
C[C@H](CO)N1C[C@H](C)[C@@H](CN(C)Cc2ccccc2)Oc2ccc(NC(=O)Nc3cccc4ccccc34)cc2CC1=O,inactive,active,inactive
O=C(C[C@H]1CC[C@@H]2[C@H](COC[C@@H](O)CN2S(=O)(=O)c2ccc(Cl)cc2)O1)N[C@@H]1CCN(Cc2ccccc2)C1,inactive,inactive,inactive
COc1ccc(N2CCn3c2nnc(C(=O)NCCO)c3=O)cc1,inactive,inactive,inactive
Cc1noc(C)c1NC(=O)Nc1ccc2c(c1)C(=O)N([C@H](C)CO)C[C@@H](C)[C@H](CN(C)S(=O)(=O)c1cccs1)OCCCC[C@@H](C)O2,inactive,inactive,inactive
COc1ccc2c3c([nH]c2c1)[C@H](CO)N(C[C@]13CCN(CC1)Cc1cc(ccc1F)F)C(=O)Nc1ccc(cc1)F,inactive,inactive,inactive
COc1ccc2c3c(n(c2c1)C)[C@@H](CO)N(C[C@]13CCN(CC1)C(=O)c1ccccc1F)C(=O)Nc1ccc(cc1)F,inactive,inactive,inactive
O=C(Nc1ccccc1)Nc1ccccc1,inactive,inactive,inactive
C[C@H]1CN([C@@H](C)CO)C(=O)Cc2cc(NC(=O)C3CCCCC3)ccc2O[C@H]1CN(C)C(=O)Nc1ccc(C(F)(F)F)cc1,inactive,inactive,inactive
C[C@@H]1CCCCO[C@@H](CN(C)C(=O)c2ccccc2)[C@H](C)CN([C@@H](C)CO)C(=O)c2cc(NS(=O)(=O)c3ccc(F)cc3)ccc2O1,inactive,inactive,inactive
C[C@H](CO)N1C[C@H](C)[C@@H](CN(C)Cc2ccc3c(c2)OCO3)Oc2c(NC(=O)Nc3ccc(C(F)(F)F)cc3)cccc2C1=O,active,inactive,inactive
COc1cccc(S(=O)(=O)Nc2ccc3c(c2)[C@H]2C[C@H](CC(=O)NCc4ccccc4F)O[C@H](CO)[C@H]2O3)c1,inactive,inactive,inactive
COc1ccc(S(=O)(=O)Nc2ccc3c(c2)C(=O)N([C@H](C)CO)C[C@H](C)[C@@H](CN(C)C(=O)Nc2ccc4c(c2)OCO4)OCCCC[C@H](C)O3)cc1,inactive,inactive,inactive
COc1ccc(/C=C/CN(C/C=C/c2ccc(OC)cc2)CCCCNS(=O)(=O)c2cccc3cnccc23)cc1,inactive,active,inactive
C[C@@H]1CN([C@@H](C)CO)C(=O)c2cc(NC(=O)Cc3ccccc3)ccc2O[C@@H]1CN(C)Cc1ccc(-c2ccccc2)cc1,inactive,active,inactive
N[C@@H](CSCc1cccc(Br)c1)C(=O)O,inactive,inactive,inactive
